According to PubChem BioAssay AID1345083 (National Center for Advancing Translational Sciences (NCATS), 2018):
Among all 94,000 compounds or so, about 6,200 (6.6%) were called active. Inconclusive means that the source gave no clear call. Such entries were picked first, then a sample of the others. Calls follow the shape of the dose curve; as a rule, active = well fitted inhibition curve with a large enough effect; inconclusive = small, poorly fitted or top-dose-only effect; inactive = flat fitted curve, though single readings scatter. Potencies of inconclusive entries are doubtful fits and often do not repeat.

Assay: Cytotoxic Profiling in HEK 293 Cell Line of Diverse Libraries Using Quantitative High-Throughput Screening; also: nearly all actives have a fitted effect of over 60% in size
Settings: HEK 293 viability, ATP luminescence (CellTiter-Glo), 48-72 h; series mostly up to 115 µM
Outline: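 Luminescence from cellular ATP, measured with CellTiter-Glo, indicates HEK 293 viability. Cells plated at 250 cells/well are treated with compound for 48 or 72 hr at 37 degree Celsius before reagent addition.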
Potency is read from the fitted curve at half-maximal effect; tags tell the direction and shape of the fitted curve.

Q: With `CCn1nc(C)cc1C(=O)N1CCCN(Cc2ccc(F)cc2)C(C(C)C)C1` (stereo not given) as the molecule, how does the Potency read?
A: inconclusive: 44.7 µM [inhibitor, full curve, poor fit]

Q: For `CC1=NS(=O)(=O)N(C)C=C1C(=O)OCc1nc(-c2ccc(Cl)cc2)no1`, which Potency is on record?
A: inconclusive: 39.8 µM [inhibitor, full curve, poor fit]

Q: With `O=C(NC1CCCCC1)c1cnc2c(c1)N([S+](=O)([O-])c1cccnc1)CCC2` as the molecule, how does the Potency read?
A: inactive

Q: For `CC(C)c1ccc(C(=O)N2CCC(Cc3nc(-c4ccc(F)cc4)no3)CC2)cc1`, which Potency is on record?
A: inconclusive: 28.2 µM [inhibitor, partial curve, poor fit]

Q: For `Cc1ccc(-c2cccc(CN3CCCC3C(=O)NCc3ccccc3Cl)c2)cc1Cl` (stereo not given), which Potency is on record?
A: active: 44.7 µM

Q: With `CN1CCCCCC(O)c2cc(C(=O)N3CCN(c4ccccc4F)CC3)ccc21` (stereo not given) as the molecule, how does the Potency read?
A: inconclusive: 50.1 µM [inhibitor, partial curve, poor fit]

Q: Which Potency does the source give for `Cc1ccc(S(=O)(=O)N(C)C2CCCc3ccccc32)cc1` (stereo not given) here?
A: active: 89.1 µM

Q: Which Potency does the source give for `Cc1nc(-c2ccccc2)n(Cc2ccc(C#N)cc2)c(=O)c1CCO` here?
A: inconclusive: 50.1 µM [inhibitor, partial curve, poor fit]

Q: For `CN(C)c1ccc(CN2CCC3(CC2)CC(=O)c2ccc(Cl)cc2O3)cc1`, which Potency is on record?
A: inconclusive: 50.1 µM [inhibitor, partial curve, poor fit]

Q: With `O=C(NCc1ccccc1)C1CCCN(c2ccnc3ccnn23)C1` (stereo not given) as the molecule, how does the Potency read?
A: active: 100 µM

Q: With `CC(=O)N1CCCN(C(=O)C2CCN(c3nccc(Nc4ccc(C)cc4)n3)CC2)CC1` as the molecule, how does the Potency read?
A: inactive

Q: For `CNC(=O)N1CCC(C2CCN(C(=O)c3cnccc3C)C2)CC1` (stereo not given), which Potency is on record?
A: inactive

Q: Which Potency does the source give for `O=C(NCC1CC1)c1cc2n(n1)CC(c1ccc3c(c1)OCO3)OC2` (stereo not given) here?
A: inconclusive: 44.7 µM [inhibitor, partial curve, poor fit]

Q: For `CC1=C[C@@H](CNC(=O)c2cncnc2)[C@H](C(C)C)C[C@H]1Cc1nnc(-c2ccccc2F)o1`, which Potency is on record?
A: inconclusive: 50.1 µM [inhibitor, partial curve, poor fit]

Q: For `COc1ccc(C(=O)NC2CCN(c3cc(-c4ccc(Cl)cc4)[nH]n3)CC2)c(C)c1`, which Potency is on record?
A: inconclusive: 50.1 µM [inhibitor, partial curve, poor fit]

Q: Which Potency does the source give for `Cc1csc(Nc2ccc3c(n2)CN(C)C(=O)CO3)n1` here?
A: active: 17.8 µM

Q: For `Cc1noc(C)c1-c1cc2cc(CO)oc2c(-c2ccc([S+](C)(=O)[O-])cc2)n1`, which Potency is on record?
A: inconclusive: 79.4 µM [inhibitor, partial curve, poor fit]

Q: With `O=C(NCc1ccccc1F)c1ccc2c(c1)CN(Cc1cccc(F)c1)CCO2` as the molecule, how does the Potency read?
A: inconclusive: 56.2 µM [inhibitor, partial curve, poor fit]

Q: For `O=C(c1cc(-c2cccc(C(F)(F)F)c2)c2nncn2n1)N1CCN(c2ncccn2)CC1`, which Potency is on record?
A: inconclusive: 79.4 µM [inhibitor, partial curve, poor fit]

Q: Which Potency does the source give for `O=C(O)C1CCCN(c2cn[nH]c(=O)c2)C1` (stereo not given) here?
A: inactive

Q: With `O=C(CC[C@@H]1CNC(=O)[C@@H]2C[C@H](NCc3ccccn3)CN12)NCc1ccc(F)cc1` as the molecule, how does the Potency read?
A: inconclusive: 35.5 µM [inhibitor, partial curve, poor fit]

Q: Which Potency does the source give for `COc1ccc(C2Cn3cnc(C(=O)N4CCC(C(=O)NCc5ccc(C)cc5)CC4)c3CO2)cc1` (stereo not given) here?
A: inactive

Q: For `CCOc1cc(C(=O)NC2CCN(c3cc(-c4cccs4)[nH]n3)C2)cc(OCC)c1OCC` (stereo not given), which Potency is on record?
A: active: 44.7 µM

Q: For `CCOc1ccccc1C(=O)NCc1nnc2ccc(-c3ccc(C)c(C)c3)nn12`, which Potency is on record?
A: inconclusive: 89.1 µM [inhibitor, single point]

Q: With `CN1C[C@@H](NC(=O)c2cccnc2)C[C@H]1c1nc(-c2cnccn2)no1` as the molecule, how does the Potency read?
A: inactive

Q: Which Potency does the source give for `O=C(NCc1cccc(Cl)c1)c1nc2sccn2c1-c1cccnc1` here?
A: inconclusive: 89.1 µM [inhibitor, single point]

Q: For `O=C1c2c(nc(COc3ccc4c(c3)OCO4)n2Cc2ccccc2)NCCN1Cc1ccccc1F`, which Potency is on record?
A: active: 35.5 µM

Q: Which Potency does the source give for `O=C(CCc1conc1-c1cccc(F)c1)NCc1ccc(Cl)cc1` here?
A: inconclusive: 89.1 µM [inhibitor, single point]

Q: With `O=C(Nc1ccc(Cl)cc1)c1nc2c(o1)CCN(Cc1cccc(F)c1)CC2` as the molecule, how does the Potency read?
A: inconclusive: 56.2 µM [inhibitor, partial curve, poor fit]

Q: With `O=C(COc1ccccc1)N1CCC2(CC1)CC(N(Cc1ccccc1)C1CC1)CCO2` (stereo not given) as the molecule, how does the Potency read?
A: inconclusive: 50.1 µM [inhibitor, partial curve, poor fit]

Q: For `CC(=O)Nc1ccc(C2(C(=O)NCc3ccc(F)cc3F)CCCCC2)cc1`, which Potency is on record?
A: inconclusive: 50.1 µM [inhibitor, partial curve, poor fit]

Q: With `CCN(CC)C(=O)[C@@H](C)C1CC[C@@]2(C)CC[C@H](NC(=O)c3ccc(OC)cc3)[C@@H](C)[C@@H]2[C@H]1O` (stereo not given in full) as the molecule, how does the Potency read?
A: inconclusive: 50.1 µM [inhibitor, partial curve, poor fit]

Q: With `CCOC(=O)[C@@H]1[C@@H](OC(N)=O)C(=O)N(C(C)C)C12CCN(S(=O)(=O)c1ccccc1)CC2` as the molecule, how does the Potency read?
A: inactive

Q: Which Potency does the source give for `CCN1C(=O)C2CC3(CCN(C(=O)NCc4ccccc4)CC3)CN2C1=O` (stereo not given) here?
A: inactive

Q: For `Cc1cccc(-c2noc([C@@H]3C[C@@H](O)CN3Cc3cccc(C#N)c3)n2)c1`, which Potency is on record?
A: inconclusive: 100 µM [inhibitor, partial curve]

Q: With `O=C1CO[C@H]2CCN(Cc3ccc4c(c3)CCO4)CC[C@@H]2N1Cc1ccccc1` as the molecule, how does the Potency read?
A: inconclusive: 112 µM [inhibitor, partial curve, poor fit]

Q: For `CN(c1ccccc1)c1ccc2c(n1)CN(CC(=O)N1CCCC1)C(=O)CO2`, which Potency is on record?
A: inconclusive: 89.1 µM [inhibitor, partial curve, poor fit]

Q: With `CC(C)NC(=O)c1cc(-c2ccc(C(F)(F)F)cc2)nc2c1cnn2C` as the molecule, how does the Potency read?
A: inconclusive: 100 µM [inhibitor, partial curve]

Q: With `CC(C)CCNC(=O)CC1Sc2ncccc2N(CC(C)C)C1=O` (stereo not given) as the molecule, how does the Potency read?
A: inactive

Q: For `CCc1ccc(NC(=O)c2ccc3c(c2)N(CC)C2CCCCN2C3=O)cc1` (stereo not given), which Potency is on record?
A: active: 25.1 µM
